According to a collection of fitness landscapes (doi:10.1016/j.celrep.2020.107928):
In all, about 81,000 sequences were measured (“one-hybrid fitness for binding parS DNA”: median about -0.17, highest 2% from about 0.51 on). Some of the results follow.

B1: Caulobacter ParB omega fusion; a variant is named by its letters at X, in order, B8GW30 (parent)
chain: MESVVVGEPGMSEGRRGLGRGLSALLGEVDAAPAQAPGEQLGGSREAPIEILQRNPDQPRRTFREEDLEDLSNSIREKGVLQPILVRPSPDTAGEYQIVAGERAWRAAQRAGLKTVPIMVRELDDLAVLEIGIIENVQRADLNVLEEALSYKVLMEKFERTQENIAQTIGKSXSHVANXMRLLXLPDEVQSYLVSGELTAXHARAIAAAADPVALAKQIIEGGLSVRETEALARKAPNLSAGKSKGGRPPRVKDTDTQALESDLSSVLGLDVSIDHRGSTGTLTITYATLEQLDDLCNRLTRGI

Variants of: B1
Assay: one-hybrid fitness for binding parS DNA (scaled: cognate 1, non-cognate 0); higher = stronger binding
Conditions: with parS DNA site
How it was run: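 Selection: bacterial one-hybrid in E. coli USO, HIS3 reporter with the site 19 bp from the promoter, 48 hours at 37°C on M9-minus-histidine plus 0.1 mM IPTG and 5 mM 3-AT. Libraries were Caulobacter ParB with four randomised specificity codons, sequenced on Illumina before and after selection. Fitness is the rescaled log change in variant-to-wild-type read ratio, anchored to the cognate and non-cognate sites.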

| Variant | one-hybrid fitness for binding parS DNA |
| --- | --- |
| PLLW | ≤ 0.2 |
| NTSW | ≤ 0.2 |
| SKLR | ≤ 0.2 |
| RLHQ | ≤ 0.2 |
| HMRG | ≤ 0.2 |
| TIKV | ≤ 0.2 |
| HAQM | ≤ 0.2 |
| GMAG | ≤ 0.2 |
| NRVE | ≤ 0.2 |
| NLVV | ≤ 0.2 |
| YWSM | ≤ 0.2 |
| TELT | ≤ 0.2 |
| VWRS | ≤ 0.2 |
| CQTY | ≤ 0.2 |
| RGDW | ≤ 0.2 |
| AWSV | ≤ 0.2 |
| KFTG | ≤ 0.2 |
| CFLR | ≤ 0.2 |
| CPTS | ≤ 0.2 |
| HHKA | ≤ 0.2 |
| QLQK | ≤ 0.2 |
| RIWT | 0.83 |
| QQDL | ≤ 0.2 |
| WWER | ≤ 0.2 |

| Variant | one-hybrid fitness for binding parS DNA |
| --- | --- |
| NYSD | ≤ 0.2 |
| NISS | ≤ 0.2 |
| YRGT | ≤ 0.2 |
| WTTL | ≤ 0.2 |
| SVCD | ≤ 0.2 |
| PYES | ≤ 0.2 |
| IVAL | ≤ 0.2 |
| HATV | ≤ 0.2 |
| TVAM | ≤ 0.2 |
| QHPF | ≤ 0.2 |
| VHSL | ≤ 0.2 |
| WANR | ≤ 0.2 |
| PFDY | ≤ 0.2 |
| AYCT | ≤ 0.2 |
| VWKY | ≤ 0.2 |
| WHGC | ≤ 0.2 |
| CLNR | ≤ 0.2 |
| HTDG | ≤ 0.2 |
| GPCG | ≤ 0.2 |
| HVDG | ≤ 0.2 |
| AEGR | ≤ 0.2 |
| FTQG | ≤ 0.2 |
| TAHM | ≤ 0.2 |
| NLAV | ≤ 0.2 |

| Variant | one-hybrid fitness for binding parS DNA |
| --- | --- |
| IRGH | ≤ 0.2 |
| RDTR | ≤ 0.2 |
| QTGC | ≤ 0.2 |
| VAGD | ≤ 0.2 |
| CAGC | ≤ 0.2 |
| AAQS | ≤ 0.2 |
| CQVK | ≤ 0.2 |
| GGRG | ≤ 0.2 |
| RGHH | ≤ 0.2 |
| ELYC | ≤ 0.2 |
| WLLD | ≤ 0.2 |
| HYDT | ≤ 0.2 |
| SYFL | ≤ 0.2 |
| PGDS | ≤ 0.2 |
| LVYP | ≤ 0.2 |
| FAAI | ≤ 0.2 |
| YHES | ≤ 0.2 |
| KGHM | ≤ 0.2 |
| MRKY | ≤ 0.2 |
| NCAI | ≤ 0.2 |
| PTSF | ≤ 0.2 |
| MPCG | ≤ 0.2 |
| RGLP | ≤ 0.2 |
| QLSK | ≤ 0.2 |

| Variant | one-hybrid fitness for binding parS DNA |
| --- | --- |
| RHKA | 0.692 |
| HCAY | ≤ 0.2 |
| FRYG | ≤ 0.2 |
| GLHR | ≤ 0.2 |
| YKTA | ≤ 0.2 |
| YVAT | ≤ 0.2 |
| PCDR | ≤ 0.2 |
| PHQS | ≤ 0.2 |
| GTVL | ≤ 0.2 |
| DYYG | ≤ 0.2 |
| FRNM | ≤ 0.2 |
| RHFD | ≤ 0.2 |
| QMWH | ≤ 0.2 |
| QSMV | ≤ 0.2 |
| LSKC | ≤ 0.2 |
| QWKD | ≤ 0.2 |
| WNRT | ≤ 0.2 |
| WAVV | ≤ 0.2 |
| SFSV | ≤ 0.2 |
| WLGT | ≤ 0.2 |
| EWHL | ≤ 0.2 |
| HSIS | ≤ 0.2 |
| KMPR | ≤ 0.2 |
| TSAN | ≤ 0.2 |

| Variant | one-hybrid fitness for binding parS DNA |
| --- | --- |
| LSES | ≤ 0.2 |
| QNRI | ≤ 0.2 |
| LVHG | ≤ 0.2 |
| QNDI | ≤ 0.2 |
| PIPT | ≤ 0.2 |
| GDGT | ≤ 0.2 |
| LCGT | ≤ 0.2 |
| WVMR | ≤ 0.2 |
| DYLK | ≤ 0.2 |
| MWML | ≤ 0.2 |
| HVCR | ≤ 0.2 |
| QECG | ≤ 0.2 |
| HPSY | ≤ 0.2 |
| TAGG | ≤ 0.2 |
| QRCT | ≤ 0.2 |
| DLFR | ≤ 0.2 |
| LERS | ≤ 0.2 |
| RRCM | ≤ 0.2 |
| ISLC | ≤ 0.2 |
| TRSG | ≤ 0.2 |
| HQWY | ≤ 0.2 |
| EHAG | ≤ 0.2 |
| AAIR | ≤ 0.2 |
| KFER | ≤ 0.2 |

| Variant | one-hybrid fitness for binding parS DNA |
| --- | --- |
| HKVT | ≤ 0.2 |
| MQPF | ≤ 0.2 |
| CCSG | ≤ 0.2 |
| VWIT | ≤ 0.2 |
| PQHC | ≤ 0.2 |
| SKRI | ≤ 0.2 |
| SEAE | ≤ 0.2 |
| PVYE | ≤ 0.2 |
| QSQV | ≤ 0.2 |
| NCTD | ≤ 0.2 |
| CTSI | ≤ 0.2 |
| GSAT | ≤ 0.2 |
| ADHY | ≤ 0.2 |
| RQVL | ≤ 0.2 |
| LSNV | ≤ 0.2 |
| QTCK | ≤ 0.2 |
| FQRN | ≤ 0.2 |
| VLMV | ≤ 0.2 |
| SNPC | ≤ 0.2 |
| THMM | ≤ 0.2 |
| MIQC | ≤ 0.2 |
| SKRC | ≤ 0.2 |
| QPPM | ≤ 0.2 |
| VIYV | ≤ 0.2 |

| Variant | one-hybrid fitness for binding parS DNA |
| --- | --- |
| RTGL | ≤ 0.2 |
| TALR | ≤ 0.2 |
| SMLW | ≤ 0.2 |
| ITDL | ≤ 0.2 |
| PKPY | ≤ 0.2 |
| QVNR | ≤ 0.2 |
| SAWW | ≤ 0.2 |
| TIPH | ≤ 0.2 |
| ALRW | ≤ 0.2 |
| YPQI | ≤ 0.2 |
| GCSW | ≤ 0.2 |
| APFW | ≤ 0.2 |
| RGTE | ≤ 0.2 |
| TKSL | ≤ 0.2 |
| PHAN | ≤ 0.2 |
| KRCE | ≤ 0.2 |
| IVAR | ≤ 0.2 |
| HKVR | ≤ 0.2 |
| GDDR | ≤ 0.2 |
| AVFS | ≤ 0.2 |
| GKGD | 0.353 |
| WSIM | ≤ 0.2 |
| SHAG | ≤ 0.2 |
| KPPT | ≤ 0.2 |

| Variant | one-hybrid fitness for binding parS DNA |
| --- | --- |
| DIQM | ≤ 0.2 |
| TFPR | ≤ 0.2 |
| RTIP | ≤ 0.2 |
| RKPS | 0.682 |
| IWST | ≤ 0.2 |
| GHTR | ≤ 0.2 |
| QKWT | ≤ 0.2 |
| YAHS | ≤ 0.2 |
| GPVL | ≤ 0.2 |
| HANM | ≤ 0.2 |
| RPCN | ≤ 0.2 |
| RLVR | ≤ 0.2 |
| VLKN | ≤ 0.2 |
| CLRN | ≤ 0.2 |
| ARMN | ≤ 0.2 |
| CFPG | ≤ 0.2 |
| PQPD | ≤ 0.2 |
| AEKT | ≤ 0.2 |
| AHDP | 0.32 |
| SSLK | ≤ 0.2 |
| THLT | ≤ 0.2 |
| EQAT | ≤ 0.2 |
| RSSC | 0.966 |
| NEMT | ≤ 0.2 |

| Variant | one-hybrid fitness for binding parS DNA |
| --- | --- |
| PRAS | ≤ 0.2 |
| MNMN | ≤ 0.2 |
| MSTG | ≤ 0.2 |
| GFYS | ≤ 0.2 |
| VPTI | ≤ 0.2 |
| QCCI | ≤ 0.2 |
| SAQL | ≤ 0.2 |
| CTTK | ≤ 0.2 |
| KINR | ≤ 0.2 |
| KMPT | ≤ 0.2 |
| PPRY | ≤ 0.2 |
| PITI | ≤ 0.2 |
| NMFR | ≤ 0.2 |
| NTSI | ≤ 0.2 |
| PSNM | ≤ 0.2 |
| AWIY | ≤ 0.2 |
| DLNL | ≤ 0.2 |
| SRSL | ≤ 0.2 |
| TDCL | ≤ 0.2 |
| KQKY | ≤ 0.2 |
| AYNA | ≤ 0.2 |
| CTHL | ≤ 0.2 |
| PLTY | ≤ 0.2 |
| TRHF | ≤ 0.2 |

| Variant | one-hybrid fitness for binding parS DNA |
| --- | --- |
| ELAY | ≤ 0.2 |
| AEIT | ≤ 0.2 |
| DKYI | ≤ 0.2 |
| CLPR | ≤ 0.2 |
| SLYY | ≤ 0.2 |
| GSGE | ≤ 0.2 |
| QGRF | ≤ 0.2 |
| RQLD | ≤ 0.2 |
| NTCW | ≤ 0.2 |
| GYFG | ≤ 0.2 |
| DPGV | ≤ 0.2 |
| RIQC | 1 |
| LIKI | ≤ 0.2 |
| WMLG | ≤ 0.2 |
| DQYS | ≤ 0.2 |
| GSTW | ≤ 0.2 |
| RSEE | ≤ 0.2 |
| MLWM | ≤ 0.2 |
| TDSV | ≤ 0.2 |
| HNLN | ≤ 0.2 |
| QTVW | ≤ 0.2 |
| FCTG | ≤ 0.2 |
| QDLW | ≤ 0.2 |
| LHAW | ≤ 0.2 |

| Variant | one-hybrid fitness for binding parS DNA |
| --- | --- |
| MVPT | ≤ 0.2 |
| QSLS | ≤ 0.2 |
| RNKS | 0.936 |
| LILI | ≤ 0.2 |
| DSER | ≤ 0.2 |
| TPWV | ≤ 0.2 |
| CVKL | ≤ 0.2 |
| ASSH | ≤ 0.2 |
| TKFL | ≤ 0.2 |
| SFYT | ≤ 0.2 |
| KKSV | ≤ 0.2 |
| DQTP | ≤ 0.2 |
| PAGN | ≤ 0.2 |
| PFHI | ≤ 0.2 |
| QAKE | ≤ 0.2 |
| ILDS | ≤ 0.2 |
| LIYY | ≤ 0.2 |
| NQKG | ≤ 0.2 |
| QKNY | ≤ 0.2 |
| DYEI | ≤ 0.2 |
| KADV | ≤ 0.2 |
| IGTC | ≤ 0.2 |
| PPWL | ≤ 0.2 |
| RNFK | ≤ 0.2 |

| Variant | one-hybrid fitness for binding parS DNA |
| --- | --- |
| AIVF | ≤ 0.2 |
| IACM | ≤ 0.2 |
| YDLL | ≤ 0.2 |
| LTPL | ≤ 0.2 |
| LRHV | ≤ 0.2 |
| RSKR | ≤ 0.2 |
| DKVC | ≤ 0.2 |
| NMNR | ≤ 0.2 |
| TGPG | ≤ 0.2 |
| FMTN | ≤ 0.2 |
| HHDS | ≤ 0.2 |
| VRRC | ≤ 0.2 |
| RMCA | 0.633 |
| SRIQ | ≤ 0.2 |
| PPPS | ≤ 0.2 |
| LHKL | ≤ 0.2 |
| EAFW | ≤ 0.2 |
| YLQA | ≤ 0.2 |
| QAGN | ≤ 0.2 |
| GERN | ≤ 0.2 |
| RISA | 0.608 |
| PRRK | ≤ 0.2 |
| NVYG | ≤ 0.2 |
| RGQY | 0.263 |

| Variant | one-hybrid fitness for binding parS DNA |
| --- | --- |
| TGAD | ≤ 0.2 |
| RVID | ≤ 0.2 |
| LSQE | ≤ 0.2 |
| NKTI | ≤ 0.2 |
| QLVY | ≤ 0.2 |
| LKPS | ≤ 0.2 |
| PDLY | ≤ 0.2 |
| SFTH | ≤ 0.2 |
| SDQS | ≤ 0.2 |
| NVDE | ≤ 0.2 |
| TESQ | ≤ 0.2 |
| HREV | ≤ 0.2 |
| MEYG | ≤ 0.2 |
| EGLW | ≤ 0.2 |
| RNNA | 0.529 |
| SSRQ | ≤ 0.2 |
| SGPE | ≤ 0.2 |
| TYRS | ≤ 0.2 |
